In article PMC12136788 one finds binding signal data, which are given here for 22 molecules.

The labels stand for the following.
B1: ENSG00000070961:be:win_3951|3pUTR|ENSG00000070961|bound_else_gene|NA|bound_elsewhere_windowed (ssRNA)
RNA: GGGAGUUCUACAGUCCGACGAUCAUUAGCAGAGCUUUAGUUUAUCUCAGUCCUGGAUGGGAGAGAGAGGGAGGAGUAAAACUGGGCAAGACAAAGAGCCCUGGAUCGUUGAAUUGAUAGUUUAAUUUCUGCUGUUGGCUGUUACAACAGAGGAUUGAGCAUCA
B2: ENSG00000107863:be:win_5001|CDS|ENSG00000107863|bound_else_gene|NA|bound_elsewhere_windowed (ssRNA)
RNA: GGGAGUUCUACAGUCCGACGAUCAAAUUCUGAAGGAAGUGAAUUAAGUUGCACCGAGGGAAGUUUAACAUCAAGUUUAGAUAGCCGGAGACAGCUCUUCAGUUCCCAUAAACUCAUCGAAUGUGAUACUCUUUCCAGGAAAAACAACAGAGGAUUGAGCAUCA
B3: chr4:186588032:186588133:-|3pUTR|ENSG00000083857|msi1|FALSE|unique (ssRNA)
RNA: GGGAGUUCUACAGUCCGACGAUCUUUUUUUACUAUAACCAGGGUUUCAUUCUGUCUUUUUCCACUGAAGUGUGACAUUUUGUUAGUACAUUUCAGUGUAGUCAUUCAUUUCUAGCUGUACAUAGGAUGAAGGAGAGAUCAGAUCAACAGAGGAUUGAGCAUCA
B4: chr6:105097214:105097376:-|3pUTR|ENSG00000112276|msi1|total|mutant (ssRNA)
RNA: GGGAGUUCUACAGUCCGACGAUCCAUGCCUUGGUUUCCUCUCCCUUCCCUCUUUCCAAUCCUGGUUUCCUAACCUCCUCUUGCCGUAAUUCUCAACUCAACUCAAAGUCCCAAGAAUUUGGAAUGGCCGGAUGCUGUGCGGGGCAACAGAGGAUUGAGCAUCA
B5: chr7:5527443:5527567:-|3pUTR|ENSG00000075624|msi1_unk|FALSE|overlapping (ssRNA)
RNA: GGGAGUUCUACAGUCCGACGAUCCAUCCCCCAAAGUUCACAAUGUGGCCGAGGACUUUGAUUGCACAUUGUUGUUUUUUUAAUAGUCAUUCCAAAUAUGAGAUGCGUUGUUACAGGAAGUCCCUUGCCAUCCUAAAAGCCACCCAACAGAGGAUUGAGCAUCA
B6: chr1:119916538:119916684:-|CDS|ENSG00000134250|unk|FALSE|bound_elsewhere (ssRNA)
RNA: GGGAGUUCUACAGUCCGACGAUCAGAGACACCUCUGUUUCUUGCUGCCCGGGAGGGGAGCUAUGAAGCAGCCAAGAUCCUGUUAGACCAUUUUGCCAAUCGAGACAUCACAGACCAUAUGGAUCGUCUUCCCCGGGAUGUGGCCAACAGAGGAUUGAGCAUCA
B7: chr7:6403584:6403671:+|3pUTR|ENSG00000136238|msi1_unk|FALSE|overlapping (ssRNA)
RNA: GGGAGUUCUACAGUCCGACGAUCUUUUCUAGUAACUAGGUGUAAAAAUCAUGUGUUGCAGCUUUAUAGUUUUUAAAAUAUUUUAGAUAAUUCUUAAACUAUGAACCUUCUUAACAUCACUGUCUUGCCAGAUUACCGACACUGCAACAGAGGAUUGAGCAUCA
B8: chr11:118751385:118751486:-|3pUTR|ENSG00000110367|msi1|FALSE|unique (ssRNA)
RNA: GGGAGUUCUACAGUCCGACGAUCUUGAAGUCUCUUCCCUUUCUACCCAGUACUCGAGCCCAGGGCUAGAAGUUGAAACUCACUAGUAAUGUUAAACACCAUUUUUUUUUUCUUUUUGGGGAGGAGUUGAUAUGCAACUGCAGUCAACAGAGGAUUGAGCAUCA
B9: ENSG00000070961:be:win_5051|3pUTR|ENSG00000070961|bound_else_gene|NA|bound_elsewhere_windowed (ssRNA)
RNA: GGGAGUUCUACAGUCCGACGAUCUUGAAUUUAGUUUGUCUAAAAUAGUCUCACAGGUAAAAAACAUAACAACAAUGACCACCAUUGUCUUUGAUACAUUUAUUUUAAUUCUUAAGUGGCCAAAUAACAGAUUAGGUAAAAUGACAACAGAGGAUUGAGCAUCA
B10: chr10:106575406:106575507:-|3pUTR|ENSG00000108018|unk|FALSE|unique (ssRNA)
RNA: GGGAGUUCUACAGUCCGACGAUCUUAUGGACUGGGCAAAGCCCACUAUAAACUAUAGGAGAAAGAAGUUCUGAUAAACCUCUUAGUAUGCUCAGCCUCCUUCUUUGCUAUGUCCCUAAGCCAACAGGGUAUAACACAGGCCCUCAACAGAGGAUUGAGCAUCA
B11: chrX:47636291:47636398:-|3pUTR|ENSG00000126767|unk|FALSE|unique (ssRNA)
RNA: GGGAGUUCUACAGUCCGACGAUCGCCUGCCCUUGGGGAGAUGAGGGAGCCCUGUCUGCGUUUUUGGAUGUGAGUAGAAGAGUUAGUUUGUUUUGUUUUAUUAUUCCUGGCCAUACUCAGGGGUCCAGGAAGAAUUUGUACCAUCAACAGAGGAUUGAGCAUCA
B12: chrX:153695679:153695780:+|3pUTR|ENSG00000130821|msi1|FALSE|unique (ssRNA)
RNA: GGGAGUUCUACAGUCCGACGAUCGGCAGCAGAACCAAGGCAAAUAUUUCAGCUGGGCUAUACCCCUCUCCCCAUCCCUGUUAUAGAAGCUUAGAGAGCCAGCCAGCAAUGGAACCUUCUGGUUCCUGCGCCAAUCGCCACCAGCAACAGAGGAUUGAGCAUCA
B13: ENSG00000168003:stop:overlap|stop_codon|ENSG00000168003|stop_codon|NA|stop_codon (ssRNA)
RNA: GGGAGUUCUACAGUCCGACGAUCCUGACAUCCCAGGGGCUGUAAGUGCCAACAUGACUGUGAAGGUAAGAGUUCUAGAUGGGUAGAAACUGACCGGUGGAGGGUGGGCUGGGCUUGUAGAAGUCUGUACCCAGGGGAGCCCCUCAACAGAGGAUUGAGCAUCA
B14: chr8:97851660:97851768:+|3pUTR|ENSG00000104341|msi1_unk|total|mutant (ssRNA)
RNA: GGGAGUUCUACAGUCCGACGAUCAUUAACUGCCGAAUUCUUCCUGUACGAUUGGGGAUAUAAUGGGCUUCACUAACCUUCCCCCGGCAUUGAAACUUCCCCCAAAUCUGAUGGACCCCGAAGUCUGCUUUUGUACCUGCUGGGCAACAGAGGAUUGAGCAUCA
B15: chr12:48145849:48145950:+|3pUTR|ENSG00000152556|msi1|FALSE|unique (ssRNA)
RNA: GGGAGUUCUACAGUCCGACGAUCCAUGACCAGUUCUGGCCAGGAGCUGGAGGAGCAGGCAGUGGGUGGGAGCUCCUUUUAGGUAGAAUUUAACAUGACUUCUGCCCCAGCUUUAUCUGUCACACAAGGCUGGGCACCUCUAGUCAACAGAGGAUUGAGCAUCA
B16: chr3:129431351:129431457:-|3pUTR|ENSG00000129071|unk|total|mutant (ssRNA)
RNA: GGGAGUUCUACAGUCCGACGAUCACUUCAAAAAAGCUUAAUUAAGUACAACCAACCACCUUUCCAGCCACCGAGAUUUUAAUCCGCCCAACCCGAAGCCCCGUGUGUGUGCUUUCUUAAUGUGUGUGCCAAUGGUGGAUCUUUCAACAGAGGAUUGAGCAUCA
B17: chr4:168926953:168927063:+|3pUTR|ENSG00000129116|msi1_unk|total|mutant (ssRNA)
RNA: GGGAGUUCUACAGUCCGACGAUCCAAAAGAGUUUUCUAACAAGGUUAAUACCUCCGUUCUUAACAUUUUUUUUCUUUAUGUGCCGUGUUUUCAUGCUACCUUGGCCGGAAACUUAUUUACAAACCAUAUUAAAAGGCUAAUUUCAACAGAGGAUUGAGCAUCA
B18: chr10:104140841:104141001:-|CDS|ENSG00000197748|control|control|control (ssRNA)
RNA: GGGAGUUCUACAGUCCGACGAUCGAAUUUGACAAUCCAAAUUCUUCUUAAACAAGGACAAGUAGAACUGGAAAAUUUCCAGCUAGUACUGGAGUAUUCUGAUGCAAUUCUCAUCAACAAGAACAUAAUUGAAGACUUGAAUUCCAACAGAGGAUUGAGCAUCA
B19: chr20:37241422:37241523:+|3pUTR|ENSG00000118705|msi1_unk|total|mutant (ssRNA)
RNA: GGGAGUUCUACAGUCCGACGAUCGUAUGAGAAGAAAAAUGGAAAAAAAAAACUUUAUUUAAAAAAGAAAAAAGUCCAGAUUGCCGUUAUACUUUUGCUUGUUUUUCAGUUUCCCCAACACACAGCAGAUACCUGGUGAGCUCACAACAGAGGAUUGAGCAUCA
B20: chr11:14877439:14878297:-|three_prime_utr|ENSG00000186104|control|control|control (ssRNA)
RNA: GGGAGUUCUACAGUCCGACGAUCAAUGUUCUUGUUUUUUACAGCAUUGCUUCAGAGGUUUCAUUUGCAUUUUCCACAUGAACUAGUUCCAGAUCUGAAGCCCAGGUUAGGCAUGACAUUGCAGCCCCAACCCUACCUCAUCUGCAACAGAGGAUUGAGCAUCA
B21: chr8:43200960:43201061:+|3pUTR|ENSG00000165102|unk|total|mutant (ssRNA)
RNA: GGGAGUUCUACAGUCCGACGAUCCAAAUUCUAAGUGUUUUCUCUUCCGGUUUCCCUGGCUUUGUGAAUGGAUCAUGUGUCUCCCGGUAUAAACCUGACAUCAUCUUUCCACCCGGCUUACCUCCACCAGAUCUCCCCAGUUCUCAACAGAGGAUUGAGCAUCA
B22: chr7:158693335:158693439:-|CDS|ENSG00000146918|unk|total|mutant (ssRNA)
RNA: GGGAGUUCUACAGUCCGACGAUCAAGGAAACAGAAAGAAGAAUUAUGGCAAAGGCUGAAGAAUUUAUUGACAGAUGUGUUGUCCGAAAGCCCAGUGGAUGGGUGGCAGGCCGUGGAAGCCCAGGGUGAAGACAAUAUGGAAACCAACAGAGGAUUGAGCAUCA

This is one part of the list.

The assay addresses T1, UNK ZnF1-6 (called full-length) (human, UniProt Q9C0B0 30-357).
T1 sequence: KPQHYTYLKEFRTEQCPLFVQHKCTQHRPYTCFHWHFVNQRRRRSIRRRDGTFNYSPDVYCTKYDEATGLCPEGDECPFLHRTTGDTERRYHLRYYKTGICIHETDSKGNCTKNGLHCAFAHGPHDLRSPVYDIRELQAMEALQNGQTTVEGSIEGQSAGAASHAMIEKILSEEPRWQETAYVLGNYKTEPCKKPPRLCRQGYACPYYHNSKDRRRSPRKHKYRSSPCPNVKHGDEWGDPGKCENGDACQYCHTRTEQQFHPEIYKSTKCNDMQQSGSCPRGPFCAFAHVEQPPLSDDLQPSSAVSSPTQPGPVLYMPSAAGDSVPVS
The assay can be described thus: nsRBNS (natural sequence RNA bind-n-seq); RBNS binding buffer (assumed for nsRBNS): 25 mM Tris pH 7.5, 150 mM KCl, 3 mM MgCl2, 0.01% Triton X-100, 500 ug/ml BSA, 20 U/ml SUPERase-In, 4 C; UNK is unkempt and MSI1 is Musashi-1; names of the RNAs are library labels; protein concentration not given here; high values mean tight binding.
On to B1, for which the binding signal is 2.5 enrichment R.

In turn, B2 displayed a binding signal of 0.312 enrichment R.

Regarding B3, the binding signal came to 1.31 enrichment R.

The molecule B4 came in with a binding signal of 0.905 enrichment R.

B5 yielded a binding signal of 0.814 enrichment R.

B6 came in with a binding signal of 1.27 enrichment R.

For the molecule B7, the binding signal came to 3.16 enrichment R.

For the molecule B8, the binding signal stood at 5.51 enrichment R.

Consider B9, for which the binding signal was determined as 4.11 enrichment R.

For the molecule B10, the binding signal came out at 0.662 enrichment R.

The molecule B11 yielded a binding signal of 8.09 enrichment R.

In the case of B12, the binding signal amounted to 1.04 enrichment R.

In turn, B13 registered a binding signal of 0.906 enrichment R.

With B14, the binding signal was determined as 0.597 enrichment R.

On to B15, for which the binding signal worked out at 6.28 enrichment R.

In turn, B16 registered a binding signal of 0.636 enrichment R.

In the case of B17, the binding signal was 1.12 enrichment R.

As to B18, the binding signal worked out at 0.28 enrichment R.

Consider B19, for which the binding signal was determined as 0.523 enrichment R.

In turn, B20 showed a binding signal of 0.648 enrichment R.

For B21, the binding signal was 0.706 enrichment R.

In turn, B22 displayed a binding signal of 1 enrichment R.
